Results on 61 sequences are retold here after the supplement of paper PMC5655136.

Read counts after selection give these values, which scatter widely.
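Further: shRNA barcodes quantified by deep sequencing of PCR amplicons from cellular DNA, counts expressed as percent of each subpool, ratio averaged over two biological duplicates.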

One data set concerns NB7. Kind of data set: fold depletion of shRNA, plasmid library share / infected cells without Dox share (9 days) (ratio); higher = more depleted after infection (more toxic, leaky expression from a Tet-inducible vector; NB7 is a neuroblastoma line without caspase-8). The following applies: shRNA pool: CD95L ORF + CD95L 3'UTR + Venus libraries. As for the experimental part:
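Pooled lethality screen in NB7 neuroblastoma cells infected with Dox-inducible pTIP shRNA libraries. The libraries tile every 21-mer of the Venus, CD95L or CD95 ORF / 3'UTR; each hairpin is the 21-nt sense sequence + CTCGAG loop + antisense. Cells were cultured 9 days with or without 100 ng/ml Dox. shRNA representation was measured by deep sequencing of the genomic inserts, normalised to the total reads per subpool and averaged over technical replicates. Fold depletion is the plasmid library share / infected cells without Dox share (mean of 2 biological replicates), and the -Dox/+Dox share ratio is the mean of 4 replicate pairings; higher values mean more depletion (toxicity).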
Turning to GACGGCGACGTAAACGGCCAC, the “fold depletion of shRNA” value is 0.674. Turning to AAAGAGGCCAATGCCCCACTG, the “fold depletion of shRNA” value is 1.37. Turning to TGGGTGGACAGCAGTGCCAGC, the “fold depletion of shRNA” value was 0.858. Consider GACCACAGGGTTCAAAATGTC, for which the “fold depletion of shRNA” value came out at 2.12. For TAAAGAGGCTGAAAGAGGCCA, the “fold depletion of shRNA” value turned out to be 0.279. For GGCTACGTCCAGGAGCGCACC, the “fold depletion of shRNA” value is 0.726. Still for that read-out and setting: the value for GCACGACTTCTTCAAGTCCGC was 0.808; that for TGAGCAAAGACCCCAACGAGA was 1.2. GGGGAAGATGATGAGCTACTG: the “fold depletion of shRNA” value came out at 9.52. In the case of GACCCGCGCCGAGGTGAAGTT, the “fold depletion of shRNA” value amounted to 0.674. On the same count and under the same terms, the same measure for GGAGGAATATGACGGAAGAAC: 2.67; for TAATAGTGCTTAAAAATCATT: 1.41. Same read-out and setting: the value for CAGCATCTTCACTTCTAAATG was 0.368; that for GCTCGCCGACCACTACCAGCA was 1.11; that for TGAAAACATGTAATAAAAAGT was 0.765. As to AGCTGACCCTGAAGCTGATCT, the “fold depletion of shRNA” value was 3.01. For the sequence TGGGGACTCATTTCATTCCTA, the “fold depletion of shRNA” value was determined as 1.44. With AGCAAGAGAGATGTTTTGGGG, the “fold depletion of shRNA” value turned out to be 1.52. Take GTGCATTTTTGTGAAATGAAA: the “fold depletion of shRNA” value turned out to be 0.721. Still for that read-out and setting: the value for AAAGGAAGACTAGAGGCTTGC was 1.25; that for AAGGTCCATGCCTCTGGAATG was 2.9; that for GAGGACGGCAACATCCTGGGG was 1.89. With CCACAGGGTTCAAAATGTCTG, the “fold depletion of shRNA” value worked out at 0.673. Still for that read-out and setting: the value for CACCACTGCCTCCACTACCGC was 2.66. The same measure, in the same setting: the same measure for GCGCACCATCTTCTTCAAGGA: 2.32. Same read-out and setting: the same measure for TTGTCCTGCTTTCTGGAGTGA: 5.44; for CCACAACATCGAGGACGGCGG: 0.637; for TGCCTCCACTACCGCTGCCAC: 0.286. With GATCAATGAAACTGGGCTGTA, the “fold depletion of shRNA” value was 2.31. Regarding TCGGCATGGACGAGCTGTACA, the “fold depletion of shRNA” value turned out to be 1.5.

As to CCAGGCACAGTTCTTCCCTGT, the “fold depletion of shRNA” value is 2.43. With AGGCTGAAAGAGGCCAATGCC, the “fold depletion of shRNA” value was found to be 1.67. As for CATAATAAGCTAAAGAGGCTG, the “fold depletion of shRNA” value was determined as 1.67. With GACCACATGAAGCAGCACGAC, the “fold depletion of shRNA” value amounted to 0.841. Take GCTCCTCAACTCACCTAATGT: the “fold depletion of shRNA” value was 0.591. For GTGGCCCATTTAACAGGCAAG, the “fold depletion of shRNA” value stood at 0.756. Consider TGATGTTTTCCTATAATATAA, for which the “fold depletion of shRNA” value was determined as 1.41. On the same count and under the same terms, the same measure for GGCGAGGGCGAGGGCGATGCC: 0.491. For ATTGAAAAGGACACCTTTTAA, the “fold depletion of shRNA” value was 0.662. With CCTTCAATTACCCATATCCCC, the “fold depletion of shRNA” value worked out at 0.923. As for CTGAGCTCTCTCTGGTCAATT, the “fold depletion of shRNA” value was 1.39. The same measure, in the same setting: the value for ATAAAAAGTATATGTTAGGAT was 0.727.

In the case of CTTTCCATTATGATTCTTTGT, the “fold depletion of shRNA” value is 0.909.

For GAAGTTCGAGGGCGACACCCT, the “fold depletion of shRNA” value is 1.03. Same read-out and setting: the same measure for TCCTGGGGCACAAGCTGGAGT: 2; for CAGCATCATCTTTGGAGAAGC: 1.77; for ACCTGGGGGCAGTGTTCAATC: 8.25. As for TTGTGAAATGAAAACATGTAA, the “fold depletion of shRNA” value amounted to 1.18. Turning to GAAGAGAGGGAACCACAGCAC, the “fold depletion of shRNA” value was found to be 1.82. As to TGTAGGGGTGTGTGTGTGTGT, the “fold depletion of shRNA” value came out at 2.98.

The same data set, now with this note: shRNA pool: CD95 ORF + CD95 3'UTR + Venus libraries.
With GACGGCGACGTAAACGGCCAC, the “fold depletion of shRNA” value was 1.22. With ATTACCTCTGATAATTCTAGA, the “fold depletion of shRNA” value worked out at 1.02.

As for GTCATGACACTAAGTCAAGTT, the “fold depletion of shRNA” value was found to be 1.25. On to TTCTGCCTCCAAGGATGTTTA, for which the “fold depletion of shRNA” value worked out at 1.1. For the sequence ACTAACTGCTCTCAGAGAAAG, the “fold depletion of shRNA” value turned out to be 1.7.

For the sequence ACATGGAATCATCAAGGAATG, the “fold depletion of shRNA” value came out at 1.07. Same read-out and setting: the value for ATCTAGTTGGGAAAACAAACT was 1.42. For the sequence CTAACATATGATTCTGTAGTA, the “fold depletion of shRNA” value came to 0.794. Consider GATACTAACTGCTCTCAGAGA, for which the “fold depletion of shRNA” value is 1.01. With GGCTACGTCCAGGAGCGCACC, the “fold depletion of shRNA” value is 1.35.

Consider GCACGACTTCTTCAAGTCCGC, for which the “fold depletion of shRNA” value is 0.976. Take TGTGTTTGGAATTATAAAATA: the “fold depletion of shRNA” value turned out to be 0.783.

For the sequence TGAGCAAAGACCCCAACGAGA, the “fold depletion of shRNA” value amounted to 0.961. AATGCACCCCCAAACATGGAA: the “fold depletion of shRNA” value came to 4.62. For the sequence TTTGCTGAAATATCAGTTACT, the “fold depletion of shRNA” value came to 1.43.
